This list was built around the results that the source calls inconclusive (neither active nor inactive); the mix of calls is not that of the screen. For part of these data: No potency is given beside an inconclusive call; the fits are too rough. Activity calls are given as the source filed them. Unless noted, calls follow the shape of the dose curve; as a rule, active = well fitted curve in the direction sought with a large enough effect; inconclusive = small, poorly fitted or top-dose-only effect, or another doubt; inactive = no such curve, though single readings can be large; an effect the other way counts as inactive or inconclusive.
Legend:
[1] = tested on: Zika virus NS2B-NS3 protease (linked construct); assay: Primary screen NINDS Rhodamine qHTS for Zika virus inhibitors (AID 1347160); also: nearly all actives have a fitted effect of over 55% in size; also: potency is read from the fitted curve at half-maximal effect
How it was run: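 Kinetic fluorescence (Ex 480 nm, Em 540 nm) over 15 min with 1.5 microM Rhodamine110 peptide and 25 nM linked protease.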

[2] = Primary fluorescence-based thiol-reactive (MSTI) qHTS assay for identification of artifact compounds. (AID 1845221); also: potency is read from the fitted curve at half-maximal effect;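 also: thiol-reactive compounds lower the probe fluorescence signal; nearly all actives have a fitted effect of over 65% in size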
How it was run: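 qHTS titration of compound; 4 uM MSTI, PBS pH 7.4, 2% DMSO; 1 h RT, dark; fluorescence 525/598 nm; normalized to Acetyl-MSTI and MSTI; 4-parameter Hill fit.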

[3] = Primary redox qHTS assay for identification of artifact compounds. (AID 1845223); also: potency is read from the fitted curve at half-maximal effect
How it was run: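 Amplex Red (25 uM) and HRP (250 mU/mL) in HBSS, with compounds for 15 min, then 250 uM DTT for 30 min, room temperature, dark. Fluorescence 525/598 nm read; normalized to DMSO and 10 uM DA3003; Hill fit.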

[4] = qHTS of pediatric cancer cell lines to identify multiple opportunities for drug repurposing: Primary screen for SK-N-MC cells (AID 1347093); conditions: SK-N-MC viability, CellTiter-Glo luminescence, 48 h; activity change, negative = cytotoxic: at 46 µM (top of the series); also: potency is read from the fitted curve at half-maximal effect
How it was run: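 Metabolically active cells were quantified by ATP-dependent luminescence (CellTiter-Glo, 15 min at room temperature) following 48 h treatment. Cells had been plated at 500-1,000 per well and settled for 5 h beforehand.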

[5] = qHTS of pediatric cancer cell lines to identify multiple opportunities for drug repurposing: Primary screen for Saos-2 cells (AID 1347097); conditions: Saos-2 viability, CellTiter-Glo ATP luminescence, 48 h; activity change, negative = cytotoxic: at 46 µM (top of the series); also: nearly all actives have a fitted effect of over 40% in size; also: potency is read from the fitted curve at half-maximal effect
How it was run: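 Following a 5-hour attachment period, cells at 500-1,000/well received compounds and were cultured for 48 hours. CellTiter-Glo was added and luminescence read to estimate viable, metabolically active cells.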

[6] = qHTS of pediatric cancer cell lines to identify multiple opportunities for drug repurposing: Primary screen for Rh18 cells (AID 1347102); also: nearly all actives have a fitted effect of over 65% in size
How it was run: (§1)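 Cells (500-1,000/well) rested 5 h, then received compounds for 48 h; metabolically active cells were measured by CellTiter-Glo luminescence. Final concentrations spanned up to 46 µM (MIPE, 11-point) or 0.59 nM-46 µM (NPC, 8-point) in primary screens, 11-point in follow-ups.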

[7] = qHTS of pediatric cancer cell lines to identify multiple opportunities for drug repurposing: Primary screen for OHS-50 cells (AID 1347103); also: nearly all actives have a fitted effect of over 40% in size
How it was run: as §1

[8] = Drug repurposing screens with cells derived from glioblastoma tumor samples (AID 1345199); conditions: GBM patient neurospheres viability, ATP luminescence, 48 h; Potency: tumour line A unless noted; series mostly up to 46 µM; also: potency is read from the fitted curve at half-maximal effect; nearly all actives have a fitted effect of over 40% in size
How it was run: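 Four patient lines of CD133+ GBM neurospheres were screened at several concentrations; hits were retested in those lines plus three slower-growing GBM lines, using 48-hour treatment and ATP-based viability.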

[9] = target: Phospholipid hydroperoxide glutathione peroxidase GPX4 (Homo sapiens) (UniProt P36969); assay: Primary qHTS Assay for Inhibitors of Recombinant Selenoprotein Glutathione Peroxidase 4 (GPX4) (AID 1845192); also: nearly all actives have a fitted effect of over 65% in size; also: potency is read from the fitted curve at half-maximal effect
Sequence of UniProt P36969 (P36969 whole entry, looked up): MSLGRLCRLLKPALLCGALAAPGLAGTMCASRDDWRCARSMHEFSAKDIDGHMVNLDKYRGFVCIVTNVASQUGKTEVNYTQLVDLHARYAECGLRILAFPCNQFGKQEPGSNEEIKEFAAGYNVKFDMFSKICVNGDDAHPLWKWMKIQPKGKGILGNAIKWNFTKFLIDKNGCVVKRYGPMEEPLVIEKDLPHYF
How it was run: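 NADPH consumption, followed by fluorescence at 340/450 nm between 0 and 15 min, reports GPX4 activity via coupled glutathione reductase (100 nM). Enzyme 200 nM was pre-exposed to compound 30 min; 0.5 mM cumene hydroperoxide and 1 mM GSH served as substrates.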

[10] = target: Cytochrome P450 2C9 (Homo sapiens) (UniProt P11712); assay: Cytochrome P450 family 2 subfamily C member 9 (CYP2C9) small molecule antagonists: luciferase biochemical (cell-free) qHTS assay (AID 1645842; active = well fitted curve in the direction sought with a large enough effect in the repeat runs; inconclusive = weak or mixed curves; inactive = no such curve, though single readings can be large; an effect the other way counts as inactive or inconclusive; also: potency is read from the fitted curve at half-maximal effect; nearly all actives have a fitted effect of over 55% in size)
Sequence of UniProt P11712 (P11712 whole entry, looked up): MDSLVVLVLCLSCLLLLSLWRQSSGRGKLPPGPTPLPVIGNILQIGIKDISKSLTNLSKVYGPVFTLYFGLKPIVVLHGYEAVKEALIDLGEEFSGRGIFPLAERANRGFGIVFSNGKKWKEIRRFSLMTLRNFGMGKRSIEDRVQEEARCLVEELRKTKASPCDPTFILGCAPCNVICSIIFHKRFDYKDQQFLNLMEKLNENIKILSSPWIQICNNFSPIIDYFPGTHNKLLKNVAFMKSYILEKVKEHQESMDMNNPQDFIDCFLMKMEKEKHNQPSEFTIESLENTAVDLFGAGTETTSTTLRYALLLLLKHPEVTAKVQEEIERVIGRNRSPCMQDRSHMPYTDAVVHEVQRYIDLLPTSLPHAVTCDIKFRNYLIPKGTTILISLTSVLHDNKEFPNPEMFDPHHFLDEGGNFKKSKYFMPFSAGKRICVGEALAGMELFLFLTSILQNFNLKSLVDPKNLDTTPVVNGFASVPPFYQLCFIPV
How it was run: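 Luminescence, after 20 min with luciferin detection reagent, reflected CYP2C9 turnover during a 1 h NADPH-driven reaction at 37C. Enzyme-substrate mix contained 0.4% bovine serum albumin and was preincubated with compound 10 min at room temperature.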

[11] = qHTS of pediatric cancer cell lines to identify multiple opportunities for drug repurposing: Primary screen for BT-12 cells (AID 1347101); also: nearly all actives have a fitted effect of over 25% in size
How it was run: as §1

[12] = Primary qHTS for small molecule stabilizers of the endoplasmic reticulum resident proteome: Secreted ER Calcium Modulated Protein (SERCaMP) assay (AID 1508630); conditions: SH-SY5Y GLuc-SERCaMP (Gaussia luciferase released on ER calcium loss) secretion, thapsigargin, luminescence; series mostly up to 38.4 µM; also: potency is read from the fitted curve at half-maximal effect
How it was run: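 GLuc-SERCaMP-expressing SH-SY5Y cells, pretreated 16 h with compound, are challenged with thapsigargin to empty ER calcium stores; after 4 h, coelenterazine is added directly to the medium and luminescence is imaged.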

[13] = target: Glutathione peroxidase 1 (Homo sapiens) (UniProt P07203); assay: Primary qHTS Assay for Inhibitors of Recombinant Selenoprotein Glutathione Peroxidase 1 (GPX1) (AID 1845191); conditions: activity, negative = inhibition: at 48.8 µM (top of the series); also: potency is read from the fitted curve at half-maximal effect; nearly all actives have a fitted effect of over 65% in size
Sequence of UniProt P07203 (P07203 whole entry, looked up): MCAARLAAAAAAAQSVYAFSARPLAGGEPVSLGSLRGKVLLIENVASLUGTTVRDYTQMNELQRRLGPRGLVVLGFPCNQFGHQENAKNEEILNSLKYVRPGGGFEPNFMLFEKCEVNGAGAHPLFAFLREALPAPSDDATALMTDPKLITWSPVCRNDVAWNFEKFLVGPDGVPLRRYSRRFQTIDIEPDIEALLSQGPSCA
How it was run: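 10 nM GPX1 + cpd, 30 min RT; start w/ 1 mM GSH, 0.5 mM cumene hydroperoxide, 0.5 mM NADPH, 100 nM GR, 0.01% BSA; buffer 50 mM Tris-HCl pH 7.5, 2 mM EDTA, 150 mM NaCl; Fl 340/450, 0 & 15 min.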

[14] = target: Luciferin 4-monooxygenase (Photinus pyralis) (UniProt P08659); assay: Primary firefly luciferase (FLuc) qHTS assay for identification of artifact compounds. (AID 1845220); also: potency is read from the fitted curve at half-maximal effect; nearly all actives have a fitted effect of over 60% in size
How it was run: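 Cell-free, 1536-well qHTS. Buffer pH 7.6 with 0.01% Tween-20 and 0.05% BSA; 10 uM D-luciferin, 10 uM ATP; 10 nM P. pyralis luciferase; luminescence after 5 min.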
Tags tell the direction and shape of the fitted curve.

With CC(=O)O[C@@H]1C[C@@]2(C)C(CC[C@]3(C)C2CC=C2C4CC(C)(C)CC[C@]4(C(=O)O)CC[C@]23C)C(C)(C)[C@H]1O (some centres not stated) the Potency [1] was active: 11.2 µM.
For CCOC(=O)N1c2ccc(C(F)(F)F)cc2C(N(Cc2cc(C(F)(F)F)cc(C(F)(F)F)c2)C(=O)OC)CC1CC (configuration not stated), the Potency [2] was inconclusive [inhibitor, partial curve, poor fit] and the Potency [3] was “inactive”.
With COC(=O)C[C@H]1[C@]2(C)C3=C(C)[C@H](c4ccoc4)C[C@H]3O[C@@H]2[C@H](O)C2[C@](C)(C(=O)OC)C=CC(=O)[C@@]21C (some centres not stated) the Potency [2] was inconclusive [inhibitor, partial curve, poor fit] and the Potency [3] was “inactive”.
With CC1(C)CC[C@]2(C(=O)O)CC[C@]3(C)C(=CCC4[C@@]5(C)C[C@@H](O)[C@H](O)[C@@](C)(CO)C5CC[C@]43C)[C@@H]2[C@@H]1O (some centres not stated) the Potency [3] was inconclusive [activator, single point].
In the case of COc1ccc(S(=O)(=O)N2c3ccc(Cl)cc3[C@@](O)(c3ccccc3Cl)[C@H]2C(=O)N2CCC[C@@H]2C(N)=O)cc1OC, the Potency [4] is reported as inconclusive [cytotoxic, partial curve, poor fit], the Potency [5] is reported as “inactive” and the Potency [6] is reported as “inactive”. For the same compound, the Potency [7] was “inactive” and the Potency [8] was inconclusive [inhibitor, single point].
With COc1ccc(S(=O)(=O)Nc2c(C)cc(C)cc2C)cc1 the Potency [9] was “inactive” and the Potency [2] was “inactive”.
For CC[N+]1(C/C2=C/CCCCCC2)CCC(NC(=O)C2c3cc(Cl)ccc3Oc3ccc(Cl)cc32)CC1 (configuration not stated), the Potency [10] was inconclusive [inhibitor, single point].
In the case of CC(C)=C[C@@H]1[C@H](CO[C@@H]2O[C@H](CO)[C@@H](O)[C@H](O)[C@H]2O)C1(C)C, the Potency [2] is reported as inconclusive [inhibitor, partial curve].
With CC(C)c1ccc(NC(=O)c2cccs2)c(-c2nc3ccccc3[nH]c2=O)c1 the Potency [1] was inconclusive [inhibitor, single point].
With CCCCCCCCCCCCOS(=O)(=O)O the Potency [4] was “inactive”, the Potency [5] was inconclusive [cytotoxic, single point] and the Potency [11] was “inactive”. The Potency [12] was inconclusive [inhibitor, single point] and the Potency [8] was inconclusive [inhibitor, partial curve, poor fit].
With C=C1/C(=C/C=C2\CCC[C@]3(C)[C@@H]([C@H](C)/C=C/[C@@H](C)C(C)C)CC[C@@H]23)C[C@@H](O)C[C@@H]1O the Potency [2] was inconclusive [inhibitor, partial curve].
In the case of CC/C(C)=C/C(=O)OC1C(OC2(C)CCC3C(C4C(C)CCC42)C3(C)C)OC(C)C(O)C1O (configuration not stated), the Potency [9] is reported as inconclusive [inhibitor, single point] and the Potency [2] is reported as inconclusive [inhibitor, single point].
For C/C(=C/C=C\C=C\Cc1cnco1)[C@@H](O)C(C)(C)C(N)=O, the Potency [3] was inconclusive [activator, partial curve, poor fit].
In the case of CN(C)C(CCOc1cccc2ccccc12)c1ccccc1 (configuration not stated), the Potency [1] is reported as “inactive” and the Potency [3] is reported as inconclusive [activator, partial curve, poor fit].
For CCCn1ncc(CN2CCCC(C(=O)c3cccc(OC(C)C)c3)C2)c1C (configuration not stated), the Potency [10] was inconclusive [inhibitor, partial curve].
For CC(CCC1C(C(=O)O)=CC(=O)CC1(C)C)O[C@@H]1O[C@H](CO)[C@@H](O)[C@H](O)[C@H]1O (some centres not stated), the Potency [1] was inconclusive [inhibitor, single point] and the Potency [2] was active: 5.85 µM.
For CC(=O)OC1C(OC(=O)c2ccccc2)C2C(=C(C)CCC2(C)C)C23CCC(C)(C2)C(=O)CC13 (configuration not stated), the Potency [1] was inconclusive [inhibitor, single point].
For CN1CCC(c2cn(C)c3ccc(OS(=O)(=O)c4c(F)cccc4F)cc23)CC1, the Potency [2] was “inactive” and the Potency [3] was inconclusive [activator, single point].
For CC[C@@H]1C[C@]1(NC(=O)[C@@H]1C[C@@H]2CN1C(=O)[C@H](C(C)(C)C)NC(=O)OCC(C)(C)CCCCc1cccc3c1CN(C3)C(=O)O2)C(=O)NS(=O)(=O)C1CC1, the Potency [1] was active: 22.4 µM and the Potency [9] was inconclusive [inhibitor, partial curve, poor fit].
With Cc1cc(OCCN2CCOCC2)nn1-c1ccc2ccccc2c1 the Potency [10] was inconclusive [inhibitor, partial curve, poor fit] and the Potency [3] was inconclusive [activator, partial curve, poor fit].
With CC1(C)OC[C@H](NC(=O)Nc2ccc(Br)cc2Br)[C@H](c2ccccc2)O1 the Potency [10] was inconclusive [inhibitor, single point].
With Fc1ccccc1CNCc1ccc(-c2ccnc3[nH]ccc23)cc1 the Potency [13] was active: 25.5 µM and the Potency [9] was active: 16.1 µM.
With CCc1ccc(-c2nc(CSCC(=O)NCCc3ccccc3)c(C)o2)cc1 the Potency [14] was inconclusive [inhibitor, partial curve].
With N#CC(CCCN1CCN(/N=C/c2cccnc2)CC1)(c1ccccc1)c1ccccc1 the Potency [3] was “inactive”.

Source: PubChem BioAssay (NCATS)
